# The list shows a part of the results. Most values come without repeats; read them as rough.
# Legend:
# Assay in all cases: cell count relative to DMSO control; melanoma cells; higher = more viable cells
# Details in all cases: library dose: low library concentration; 72 h
# MZ2-MEL = tested on: MZ2-MEL
# MeWo = tested on: MeWo
# RPMI7951 = tested on: RPMI7951
# RVH-421 = tested on: RVH-421
# SkMel28 = tested on: SkMel28
# SkMel2 = tested on: SkMel2
# SkMel30 = tested on: SkMel30
# UACC62 = tested on: UACC62
# SkMel5 = tested on: SkMel5
# UACC257 = tested on: UACC257
# 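Further: cell number obtained by counting DAPI-stained nuclei in high-throughput microscope images with image analysis software, screen run in 1,536-well plates.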
SMILES,cell count (MZ2-MEL),cell count (MeWo),cell count (RPMI7951),cell count (RVH-421),cell count (SkMel28),cell count (SkMel2),cell count (SkMel30),cell count (UACC62),cell count (SkMel5),cell count (UACC257)
"COc1ccc(C2=N[C@@H](c3ccc(Cl)cc3)[C@@H](c3ccc(Cl)cc3)N2C(=O)N2CCNC(=O)C2)c(OC(C)C)c1 [Nutlin-3] + Cn1c(Nc2ccc(C(F)(F)F)cc2)nc2cc(Oc3ccnc(-c4ncc(C(F)(F)F)[nH]4)c3)ccc21 [CHIR265] (first compound 0.1 µM, partner dose 0.08 µM)",88.1%,72.2%,83.8%,60.3%,49.8%,90.9%,67.5%,45.7%,–,–
"CC(C)C[C@H](NC(=O)[C@H](Cc1ccccc1)NC(=O)c1cnccn1)B(O)O [Bortezomib] + Cn1nnc2c(C(N)=O)ncn2c1=O [temozolomide] (first compound 0.001 µM, partner dose 2 µM)",38.1%,76.7%,62.6%,32.8%,82.2%,91.1%,65.9%,67.4%,–,–
"Cc1cn(-c2cc(NC(=O)c3ccc(C)c(Nc4nccc(-c5cccnc5)n4)c3)cc(C(F)(F)F)c2)cn1 [nilotinib] + NC1(c2ccc(-c3nc4ccn5c(=O)[nH]nc5c4cc3-c3ccccc3)cc2)CCC1 [MK2206] (first compound 0.2 µM, partner dose 0.4 µM)",90.8%,87.7%,92.6%,97.5%,81.9%,89.9%,91%,81.9%,–,–
"COc1ccc(C2=N[C@@H](c3ccc(Cl)cc3)[C@@H](c3ccc(Cl)cc3)N2C(=O)N2CCNC(=O)C2)c(OC(C)C)c1 [Nutlin-3] + CN(c1ncccc1CNc1nc(Nc2ccc3c(c2)CC(=O)N3)ncc1C(F)(F)F)S(C)(=O)=O [PF562271] (first compound 0.1 µM, partner dose 0.08 µM)",95%,101%,78.7%,96.9%,114%,93%,92.4%,91.4%,–,–
"Cn1c(=O)n(-c2ccc(C(C)(C)C#N)cc2)c2c3cc(-c4cnc5ccccc5c4)ccc3ncc21 + CC(C)C[C@H](NC(=O)[C@H](Cc1ccccc1)NC(=O)c1cnccn1)B(O)O [Bortezomib] (first compound 0.004 µM, partner dose 0.001 µM)",93.1%,83.3%,85.6%,66.9%,81.2%,89.6%,80.5%,81%,–,–
"Cc1cn(-c2cc(NC(=O)c3ccc(C)c(Nc4nccc(-c5cccnc5)n4)c3)cc(C(F)(F)F)c2)cn1 [nilotinib] + Clc1ccc(Nc2nnc(Cc3ccncc3)c3ccccc23)cc1 [vatalanib] (first compound 0.2 µM, partner dose 2 µM)",85.3%,73.1%,88.5%,83.8%,110%,107%,104%,87.7%,–,–
"Cc1cc(Nc2cc(N3CCN(C)CC3)nc(/C=C/c3ccccc3)n2)n[nH]1 + NCC(=O)Nc1ccc(-n2nc(C(F)(F)F)cc2-c2ccc3c(ccc4ccccc43)c2)cc1 [OSU03012] (first compound 0.04 µM, partner dose 1 µM)",–,65.1%,125%,102%,75.1%,92.7%,48.2%,81.5%,107%,95.2%
"CC(C)C[C@H](NC(=O)[C@H](Cc1ccccc1)NC(=O)c1cnccn1)B(O)O [Bortezomib] + Nc1ncn([C@H]2C[C@H](O)[C@@H](CO)O2)c(=O)n1 [decitabine] (first compound 0.001 µM, partner dose 0.1 µM)",47.3%,78.5%,36.7%,49.4%,85.6%,–,81%,49.9%,–,–
"Cn1c(=O)n(-c2ccc(C(C)(C)C#N)cc2)c2c3cc(-c4cnc5ccccc5c4)ccc3ncc21 + CN1CCN(c2ccc3nc(-c4c(N)c5c(F)cccc5[nH]c4=O)[nH]c3c2)CC1 [Dovitinib] (first compound 0.004 µM, partner dose 0.1 µM)",95.3%,79.9%,96.3%,99.9%,74.1%,–,99.8%,103%,–,–
"COc1ccc(C2=N[C@@H](c3ccc(Cl)cc3)[C@@H](c3ccc(Cl)cc3)N2C(=O)N2CCNC(=O)C2)c(OC(C)C)c1 [Nutlin-3] + CO[C@H]1C[C@@H]2CC[C@@H](C)[C@@](O)(O2)C(=O)C(=O)N2CCCC[C@H]2C(=O)O[C@H]([C@H](C)C[C@@H]2CC[C@@H](OCCO)[C@H](OC)C2)CC(=O)[C@H](C)/C=C(\C)[C@@H](O)[C@@H](OC)C(=O)[C@H](C)C[C@H](C)/C=C/C=C/C=C/1C [everolimus] (first compound 0.1 µM, partner dose 0.02 µM)",82.6%,79.2%,72.1%,82.3%,69.1%,–,57.9%,70.6%,–,–
"CC(C)C[C@H](NC(=O)[C@H](Cc1ccccc1)NC(=O)c1cnccn1)B(O)O [Bortezomib] + Nc1nc(F)nc2c1ncn2[C@@H]1O[C@H](CO)[C@@H](O)[C@@H]1O [fludarabine] (first compound 0.001 µM, partner dose 0.2 µM)",68.9%,35.5%,63.1%,61%,74.3%,6.01%,21.9%,64.3%,–,–
"Cc1cn(-c2cc(NC(=O)c3ccc(C)c(Nc4nccc(-c5cccnc5)n4)c3)cc(C(F)(F)F)c2)cn1 [nilotinib] + Nc1cccc2c1CN(C1CCC(=O)NC1=O)C2=O [lenalidomide] (first compound 0.2 µM, partner dose 1 µM)",94%,96.1%,92.3%,94.2%,102%,–,103%,89.8%,–,–
"Cc1cn(-c2cc(NC(=O)c3ccc(C)c(Nc4nccc(-c5cccnc5)n4)c3)cc(C(F)(F)F)c2)cn1 [nilotinib] + Nc1nc(F)nc2c1ncn2[C@@H]1O[C@H](CO)[C@@H](O)[C@@H]1O [fludarabine] (first compound 0.2 µM, partner dose 0.2 µM)",90.7%,42.8%,93.9%,84.2%,74.7%,–,18.5%,78.5%,–,–
"Cc1cc(Nc2cc(N3CCN(C)CC3)nc(/C=C/c3ccccc3)n2)n[nH]1 + CN(NC(=O)CC(=O)NN(C)C(=S)c1ccccc1)C(=S)c1ccccc1 [STA4783] (first compound 0.04 µM, partner dose 0.006 µM)",–,87%,115%,110%,93.7%,–,98.4%,90.7%,75.4%,75.4%
"CC(C)C[C@H](NC(=O)[C@H](Cc1ccccc1)NC(=O)c1cnccn1)B(O)O [Bortezomib] + CCN(CC)CCCCNc1ncc2cc(-c3cc(OC)cc(OC)c3)c(NC(=O)NC(C)(C)C)nc2n1 [PD173074] (first compound 0.001 µM, partner dose 0.1 µM)",–,83.2%,108%,126%,95%,–,90%,94.7%,103%,77.4%
"Cc1cc(Nc2cc(N3CCN(C)CC3)nc(/C=C/c3ccccc3)n2)n[nH]1 + Nc1cccc2c1CN(C1CCC(=O)NC1=O)C2=O [lenalidomide] (first compound 0.04 µM, partner dose 1 µM)",102%,97.3%,93.1%,94.2%,102%,–,91%,87.1%,–,–
"Cn1c(=O)n(-c2ccc(C(C)(C)C#N)cc2)c2c3cc(-c4cnc5ccccc5c4)ccc3ncc21 + Cn1nnc2c(C(N)=O)ncn2c1=O [temozolomide] (first compound 0.004 µM, partner dose 2 µM)",92.6%,83%,85.6%,105%,87.4%,88.7%,60.6%,69.2%,–,–
